Measured values published in the supplement of paper PMC10126150.
Sequences with one replicate were seen in a single cluster, so their values are uncertain.

tested on: ATP; test: switch fluorescence ratio, 500 uM ATP over buffer (Cy3 cluster intensity, sum of 5 cycles each) (fold (ratio)); higher = stronger signal-on switching upon ATP binding; sequences stand for … in TCGTCGGCAGCGTCAGATGTGTATAAGAGACAGTTTTTTTTTTTTTTTTTTTTTTTTT…TC; settings: aptamer strand: ATP DNA aptamer (quencher-CACCTGGGGGAGTATTGCGGAGGAAGG + anchor), 100 nM annealed; ATP concentration: 500 uM; one replicate
How it was run: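 Cy3-labelled switching-strand clusters on a modified Illumina MiSeq flow-cell were annealed to 100 nM quencher-labelled ATP aptamer, imaged in selection buffer, then imaged after 15 min with 500 uM ATP at 22 °C. Five buffer/ATP cycles ran, with NaOH stripping and re-annealing between them. The fluorescence ratio is summed target-cycle over summed buffer-cycle Cy3 intensity per cluster, averaged per switch-domain sequence. Clusters outside 100-1000 RFU were excluded.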
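Further: ATP exposure 15 min at 22 °C before imaging.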

Sequence	switch fluorescence ratio
CAAGGTCCGG	0.995
CAAGGTGCGA	1.02
CAAGTCATTA	1
CAAGTGAGTA	0.998
CAATAAAGTA	1.04
CAATAACAGT	0.99
CAATAACTTT	1.01
CAATAAGCCG	1
CAATAAGTTC	0.974
CAATACGCCG	1.03
CAATACTGAA	1.04
CAATAGAAGG	0.956
CAATAGTAAA	1
CAATAGTCCG	1.04
CAATATCCTA	0.982
CAATATTGCT	0.988
CAATATTGGT	1.03
CAATATTTCT	1
CAATCAGAT	0.962
CAATCATCTT	1.01
CAATCATGAA	0.947
CAATCCGCCG	1.04
CAATCCTTAG	1.02
CAATCGCTCC	1.37
CAATCGCTTT	1.05

Sequence	switch fluorescence ratio
CAATCGGTG	0.989
CAATCTGGAT	1.01
CAATCTTAAC	0.996
CAATCTTACA	1.03
CAATGACTGA	1.02
CAATGATGAT	0.967
CAATGCAGAT	0.971
CAATGCGAGC	1.11
CAATGGAGGT	0.981
CAATGGGAGC	0.987
CAATGGGCCC	0.988
CAATGGGGTC	0.974
CAATGGTA	1.05
CAATGGTAAG	0.931
CAATGTGAAC	1.03
CAATTAAAAA	0.958
CAATTAAAAG	0.972
CAATTACGTA	1.15
CAATTAGGCA	0.988
CAATTCATAA	0.977
CAATTCCAAC	0.968
CAATTCCTAA	1
CAATTCGATT	0.984
CAATTCGCAC	1.79
CAATTGGCCA	0.922

Sequence	switch fluorescence ratio
CAATTTTGAG	1.01
CACAAATGGA	0.957
CACAACACGG	1.52
CACAACTCAA	1.02
CACAAGAGAC	1.28
CACAAGGGT	0.959
CACAAGTCCG	1.09
CACAATAGAA	1.02
CACAATGCTA	1.23
CACACCTACG	1.64
CACACGACGG	1.23
CACAGAAGCT	1.06
CACAGAGGAA	1
CACAGGAATG	1.02
CACAGGGTTG	1.04
CACAGGTCGC	1.01
CACAGTATAA	1.06
CACAGTGGAT	0.994
CACAGTTATC	1.05
CACATAATAG	1.02
CACATATT	1.07
CACATATTCA	1.02
CACATTATAA	0.995
CACATTGGAA	1
CACCAACACG	1.31

Sequence	switch fluorescence ratio
CACCACTATC	1.14
CACCAGACAC	1.14
CACCAGACTG	1.06
CACCAGATTG	1.04
CACCCCAGCC	1.31
CACCGAGTAT	1.04
CACCGATAGG	1.03
CACCGCGGCC	2.62
CACCGGACGG	1.05
CACCGGGGTC	1.05
CACCGTAACG	1.2
CACCGTGCTA	1.08
CACCGTTTGA	1.03
CACCTACCTA	1.29
CACCTCAGGT	1.24
CACCTTGAAA	0.967
CACGAAATGT	1.11
CACGAACCGA	1.44
CACGAATTCA	0.968
CACGACCACT	1.36
CACGACCTTC	1.66
CACGACTGCT	1.08
CACGAGCACC	1.31
CACGAGCGT	0.995
CACGAGCTTG	0.98
